The supplement of paper PMC8813932
Structures can show the parent of a compound that is named as a salt. ± gives the standard deviation of the averaged measurements. The list shows a part of the results. Single values are uncertain, as repeats are few or missing.

Assays:
Experiment in all cases: log2 surviving fraction relative to plate median (drug vs vehicle, or drug+dl922-947 vs dl922-947 alone); ovarian cancer lines: OVCAR4 is platinum-sensitive while Ov4Cis resists cisplatin and Ov4Carbo carboplatin; higher = more cell survival
Details in all cases: compound concentration: 10 uM, 192 h
OVCAR4 = tested on: OVCAR4
Ov4Carbo = tested on: Ov4Carbo
Ov4Cis = tested on: Ov4Cis
[1] = dl922-947 oncolytic adenovirus co-treatment: MOI 10
[2] = dl922-947 oncolytic adenovirus co-treatment: none

Structure (SMILES)	log2 surviving fraction (OVCAR4; [1])	log2 surviving fraction (OVCAR4; [2])	log2 surviving fraction (Ov4Carbo; [1])	log2 surviving fraction (Ov4Carbo; [2])	log2 surviving fraction (Ov4Cis; [1])	log2 surviving fraction (Ov4Cis; [2])
CCCCCCCCCCCCCCCC[n+]1ccccc1 [Cetylpyridinium Chloride]	-9.64 ± 0.63	-11.2 ± 7	-7.5	-10.9	-8.9	-15
O=c1oc2c(O)c(O)cc3c(=O)oc4c(O)c(O)cc1c4c23 [Ellagic acid]	-0.247 ± 0.15	0.222 ± 0.053	0.418	-0.542	0.272	-0.37
CC1(C)[C@@H](O[C@H]2O[C@H](C(=O)O)[C@@H](O)[C@H](O)[C@H]2O[C@@H]2O[C@H](C(=O)O)[C@@H](O)[C@H](O)[C@H]2O)CC[C@]2(C)[C@H]3C(=O)C=C4[C@@H]5C[C@@](C)(C(=O)O)CC[C@]5(C)CC[C@@]4(C)[C@]3(C)CC[C@@H]12 [Ammonium Glycyrrhizinate (AMGZ)]	-0.53 ± 0.014	-0.346 ± 0.19	0.464	0.707	0.554	0.416
CN[C@@H]1[C@H](O)[C@H](NC)[C@H]2O[C@@]3(O)C(=O)C[C@@H](C)O[C@H]3O[C@@H]2[C@H]1O [Spectinomycin  hydrochloride]	-0.311 ± 1.1	-0.247 ± 0.8	-0.378	0.841	-0.913	-0.398
Clc1ccc(COC(Cn2ccnc2)c2ccc(Cl)cc2Cl)c(Cl)c1 (configuration not stated) [Miconazole (Monistat)]	-3.73 ± 3.1	-4.57 ± 3	-6.2	-11.4	-2.34	-2.04
CCCCc1nc(Cl)c(CO)n1Cc1ccc(-c2ccccc2-c2nnn[nH]2)cc1 [Losartan potassium]	-0.278 ± 0.85	-1.27 ± 0.5	-0.243	0.463	-0.62	-0.341
CCN1CCN(C(=O)N[C@@H](C(=O)N[C@@H]2C(=O)N3C(C(=O)O)=C(CSc4nnnn4C)CS[C@H]23)c2ccc(O)cc2)C(=O)C1=O [Cefoperazone (Cefobid)]	0.455 ± 1.1	-0.187 ± 0.048	-0.228	0.146	-0.344	-0.729
CC(=O)S[C@@H]1CC2=CC(=O)CC[C@]2(C)[C@H]2CC[C@@]3(C)[C@@H](CC[C@@]34CCC(=O)O4)[C@H]12 [Spironolactone]	0.313 ± 0.56	-0.974 ± 0.49	-0.335	0.369	0.154	-0.585
CCCCNc1ccc(C(=O)OCCN(C)C)cc1 [Tetracaine hydrochloride (Pontocaine)]	0.294 ± 0.23	0.318 ± 1.2	-0.396	1.02	-0.673	0.0555
Cc1cccc(C)c1NC(=O)C1CCCCN1C (configuration not stated) [Mepivacaine HCl]	0.25 ± 0.36	0.367 ± 0.11	0.462	-0.492	0.268	0.795
NCCC(O)(P(=O)(O)O)P(=O)(O)O [Pamidronate Disodium]	-0.0576 ± 1.2	1.17 ± 0.13	1.33	0.73	0.554	0.253
c1ccc(CN(CC2=NCCN2)c2ccccc2)cc1 [Antazoline HCl]	-0.146 ± 0.29	-0.453 ± 0.16	-0.179	-0.361	-0.204	-0.894
CCCCCCNC(=O)n1cc(F)c(=O)[nH]c1=O [Carmofur]	-0.603 ± 0.21	-2.73 ± 1.6	-0.0616	-4.38	-1.05	-3.05
CC(=O)N[C@H]1[C@H]([C@H](O)[C@H](O)CO)OC(C(=O)O)=C[C@@H]1NC(=N)N [Zanamivir (Relenza)]	-0.127 ± 0.33	0.456 ± 0.1	-0.159	-1.33	0.0241	-0.0979
CCOC(=O)c1ccc(OC(=O)CCCCCNC(=N)N)cc1 [Gabexate mesylate]	0.344 ± 0.44	-0.0397 ± 0.93	-0.00419	-0.245	0.591	0.0969
CC(=O)OCC(=O)[C@@]1(O)CC[C@H]2[C@@H]3CCC4=CC(=O)C=C[C@]4(C)[C@H]3[C@@H](O)C[C@@]21C [Prednisolone acetate (Omnipred)]	2.19 ± 0.47	0.765 ± 1.4	0.685	0.314	1.49	0.143
CN(C)CC/C=C1/c2ccccc2COc2ccc(CC(=O)O)cc21 [Olopatadine hydrochloride (Opatanol)]	0.266 ± 0.043	0.492 ± 0.16	0.219	0.278	0.957	0.367
CCCCCCCCOc1ccccc1C(=O)Nc1ccc(C(=O)OCC[N+](C)(CC)CC)cc1 [Otilonium Bromide]	-0.519 ± 0.28	-0.0913 ± 0.15	-2.07	1.59	-0.581	0.0999
CN1[C@@H]2CC[C@H]1C[C@@H](OC(c1ccccc1)c1ccccc1)C2 [Benztropine mesylate]	-3.21 ± 0.18	-1.91 ± 1.5	-2.77	-0.835	-4.64	-4.53
CN(C)CCCN1c2ccccc2CCc2ccccc21 [Imipramine HCl]	-1.26 ± 1.6	0.266 ± 0.67	-3.09	-2.43	-1.43	-0.632
NC(=O)c1ncn([C@@H]2O[C@H](CO)[C@@H](O)[C@H]2O)c1O [Mizoribine (Bredinin)]	-0.329 ± 0.17	0.473 ± 0.23	-0.245	0.38	-0.0111	-0.703
Cc1cn([C@@H]2C[C@@H](O)[C@H](CO)O2)c(=O)[nH]c1=O [Telbivudine (Sebivo, Tyzeka)]	0.382 ± 0.25	0.6 ± 0.32	-0.471	0.27	-0.0708	0.66
